Measurements from PMC6516726 (ACS Catalysis, 2018).

Target: I107L PETNR (Enterobacter cloacae, UniProt P71278, I108L)
Conditions: for ΔCp^⧧ / ΔHT0^⧧ / ΔST0^⧧: fit of kobs1 (5–40 °C) to eq 1
[1] = deuterated minus protiated coenzyme, T0 = 298 K

Compound | ΔCp^⧧ (T0 = 298 K) [kJ mol^–1 K^–1] | ΔHT0^⧧ (T0 = 298 K) [kJ mol^–1] | ΔST0^⧧ (T0 = 298 K) | Isotope Effect on ΔCp^⧧ [1] [kJ mol^–1 K^–1] | Isotope Effect on ΔHT0^⧧ [1] [kJ mol^–1] | Isotope Effect on ΔST0^⧧ [1] [J mol^–1 K^–1] | KS (25 °C, 50 mM potassium phosphate pH 7.0, 20 μM enzyme) [µM] | kred (25 °C, 50 mM potassium phosphate pH 7.0, 20 μM enzyme, fast phase) [s^–1]
[2H][C@@H]1C=CN([C@@H]2O[C@H](COP(=O)(O)OP(=O)(O)OC[C@H]3O[C@@H](n4cnc5c(N)ncnc54)[C@H](O)[C@@H]3O)[C@@H](O)[C@H]2O)C=C1C(N)=O [(R)-[4-^2H]-NADH] | 0.43 ± 0.07 | 45.4 ± 0.3 | –103.9 ± 0.9 J mol^–1 K^–1 | 0.19 ± 0.08 | 6.7 ± 0.4 | 6.1 ± 1.2 |  | 
NC(=O)C1=CN([C@@H]2O[C@H](COP(=O)(O)OP(=O)(O)OC[C@H]3O[C@@H](n4cnc5c(N)ncnc54)[C@H](O)[C@@H]3O)[C@@H](O)[C@H]2O)C=CC1 [NADH] | 0.23 ± 0.04 | 38.7 ± 0.2 | –110.0 ± 0.8 J mol^–1 K^–1 |  |  |  | 889 ± 36 | 1.94 ± 0.02
